Reference: the RNAGym collection of RNA variant scans (doi:10.1101/gad.245936.114)
Variants at the floor of the assay are shown more often than the library holds them.

B1: tRNA (parent)
chain: CUCUCGGUAGCCAAGUUGGUUUAAGGCGCAAGACUUUAAUUUAUCACUACGAAAUCUUGAGAUCGGGCGUUCGACUCGCCCCCGGGAGAUUUUUUCCUCGAGCAA

Variants of: B1
Test: nonsense suppression (GFP-seq) (ratio to wild type); higher = more function; SUP4oc tRNA, yeast GFP reporter sort-seq
Procedure, shortened: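 To measure nonsense suppression, tRNA variants from a library carrying ~3% random mutations were integrated into the yeast genome alongside RFP and a GFP ochre reporter under galactose control. Growth took place in raffinose/galactose medium supplemented with 80 mg/L adenine, followed by sorting into GFP/RFP bins and Illumina sequencing of each bin (phred ≥30). For each variant with ≥100 reads and ≥30 cells, the bin median GFP/RFP values were weighted by its estimated cell share per bin and referenced to the unmutated parent tRNA.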

| Variant | nonsense suppression |
| --- | --- |
| C5U A30C C82U | ≤ 0.026 |
| C5G U63A G86C | ≤ 0.026 |
| U4G C12A C81A | ≤ 0.026 |
| U4G G6U G59U | ≤ 0.026 |
| C5G U76G A89U | ≤ 0.026 |
| C5A A30G U63G | ≤ 0.026 |
| C5A U17C C56G C79G G85U G88A A89C | ≤ 0.026 |
| C5U A24U C27A U57C | ≤ 0.026 |
| C5U A31C G69C | ≤ 0.026 |
| C5G U16C C27A U55A | ≤ 0.026 |
| C5G G67U C81G | ≤ 0.026 |
| C5G U55C G86U | ≤ 0.026 |
| C5A U17G | ≤ 0.026 |
| C5A G6C C56U U76A | ≤ 0.026 |
| U4G U16G G61A U76A C79U | ≤ 0.026 |
| U4G U71G G78A | ≤ 0.026 |
| C5A U8G U20C G65A | ≤ 0.026 |
| C5G G32C | ≤ 0.026 |
| C5G G32U | ≤ 0.026 |
| U4G C56U G88U | ≤ 0.026 |
| C5G C11A U16A A60C A62G G69C | ≤ 0.026 |
| C5A A14U G69C U71A G73C C81A | ≤ 0.026 |
| U4G G19U U71A U76G A89C | ≤ 0.026 |
| C5G C56G C82A | ≤ 0.026 |

| Variant | nonsense suppression |
| --- | --- |
| U4G G15A U16G A23C G28C G73C G85U | ≤ 0.026 |
| C5G U17G C34G G69A | ≤ 0.026 |
| U4G U16G A24U C77G | ≤ 0.026 |
| C5G C56G G69U U70G | ≤ 0.026 |
| C5G A14G C80U | ≤ 0.026 |
| C5G G15C G61A C83U | ≤ 0.026 |
| U4G U17A G84A | ≤ 0.026 |
| U4G U21A G25U A31U A87C | ≤ 0.026 |
| C5A C81A | ≤ 0.026 |
| U4G G67A | ≤ 0.026 |
| U4G U16G G32C G65C | ≤ 0.026 |
| C5A A89C | ≤ 0.026 |
| U4G G59U C75G C80A | ≤ 0.026 |
| U4G U70A U71G | ≤ 0.026 |
| C5G A23C G61C | ≤ 0.026 |
| C5G C29U U55A U57G A87C | ≤ 0.026 |
| C5G C12U G19C | ≤ 0.026 |
| C5A C29G C75G | ≤ 0.026 |
| U4G G15C U20G U22A C83A | ≤ 0.026 |
| C5A U76C G86C | ≤ 0.026 |
| C5G G32A A33G | ≤ 0.026 |
| C5U A23U A24G A54C C75G | ≤ 0.026 |
| C5G A30U | ≤ 0.026 |
| C5G U63C G78C C79A | ≤ 0.026 |

| Variant | nonsense suppression |
| --- | --- |
| C5A U55G G66C | ≤ 0.026 |
| C5G A14U G69C | ≤ 0.026 |
| C5G G15A G67A | ≤ 0.026 |
| U4G C29U C56G C77G | ≤ 0.026 |
| C5G A13U C68G G86C | ≤ 0.026 |
| C5G G73U U76A G78C | ≤ 0.026 |
| C5U A54G U55C | ≤ 0.026 |
| U4G G19A A30G | ≤ 0.026 |
| U4G U70C | ≤ 0.026 |
| C5G C11A | ≤ 0.026 |
| C5G C11U | ≤ 0.026 |
| C5U A23C G73A | ≤ 0.026 |
| C5G A14G G18A A31U | ≤ 0.026 |
| C5G C12U A30G | ≤ 0.026 |
| C5U A13C A87G | ≤ 0.026 |
| C5A G78U C81G | ≤ 0.026 |
| U4G U57A G59A G69C G88C A89C | ≤ 0.026 |
| C5G G28C G88C | ≤ 0.026 |
| C5U A9U A31C G73A | ≤ 0.026 |
| C5G G25U A31G A33G G73C | ≤ 0.026 |
| C5A A23U C34G | ≤ 0.026 |
| C5U A54G G84C G86A | ≤ 0.026 |
| U4G C34U | ≤ 0.026 |
| U4G G32C G73C G86U | ≤ 0.026 |

| Variant | nonsense suppression |
| --- | --- |
| C5A C34G G73C | ≤ 0.026 |
| C5G A23G A33U | ≤ 0.026 |
| C5A G18U | ≤ 0.026 |
| C5A G18A | ≤ 0.026 |
| C5G C27G | ≤ 0.026 |
| U4G C79G G85A | ≤ 0.026 |
| U4G G69U | ≤ 0.026 |
| C5G C56A | ≤ 0.026 |
| C5G G32U A62G | ≤ 0.026 |
| C5A A31C C82U | ≤ 0.026 |
| C5A A14U A87U | ≤ 0.026 |
| U4G G59U C75U | ≤ 0.026 |
| C5G A89G | ≤ 0.026 |
| C5A U21C C79G | ≤ 0.026 |
| C5G A14U G85U | ≤ 0.026 |
| C5U A30C A31U | ≤ 0.026 |
| U4G U21G G32A U58G G59U G69A | ≤ 0.026 |
| C5G A13U U35G A74C | ≤ 0.026 |
| C5U A33G A54G A87C | ≤ 0.026 |
| C5A A24G | ≤ 0.026 |
| C5A G15U A24G | ≤ 0.026 |
| U4G G59A | 0.0506 |
| C5G A14G G73U | ≤ 0.026 |
| U4G G15U | ≤ 0.026 |

| Variant | nonsense suppression |
| --- | --- |
| U4G U8G C11U | ≤ 0.026 |
| C5G C11G A23U G28U C34A | ≤ 0.026 |
| C5U A9U A31C C64U G65A | ≤ 0.026 |
| C5A G10A G15U C34G | ≤ 0.026 |
| U4G G7U C56A | ≤ 0.026 |
| C5G G19C A87G | ≤ 0.026 |
| C5G A33U U57G C77U | ≤ 0.026 |
| C5U A14C C83G | ≤ 0.026 |
| C5A U55C U76G | ≤ 0.026 |
| C5G G25A A89G | ≤ 0.026 |
| C5A C75G C83U | ≤ 0.026 |
| C5G U8C G19C G66A | ≤ 0.026 |
| C5U A30U | 0.138 |
| C5A U16A A60U | ≤ 0.026 |
| U4G C12U U55G | ≤ 0.026 |
| U4G G18C U35C G61C C68U U76C G86C | ≤ 0.026 |
| C5A A60G | 0.0265 |
| C5G G19U G26A A33G U76G | ≤ 0.026 |
| C5G A31G G73A | ≤ 0.026 |
| C5A G28C | ≤ 0.026 |
| C5A G28U | ≤ 0.026 |
| C5A A23C G26U | ≤ 0.026 |
| U4G G7U C11A U58G | ≤ 0.026 |
| C5A A24C U63C | ≤ 0.026 |

| Variant | nonsense suppression |
| --- | --- |
| C5A U20G G88A | ≤ 0.026 |
| C5A G25C A33G | ≤ 0.026 |
| C5A G78U A89C | ≤ 0.026 |
| C5G U35A C56A | ≤ 0.026 |
| C5A G25U C29U A60C | ≤ 0.026 |
| U4G G66A A89C | ≤ 0.026 |
| U4G U8A | ≤ 0.026 |
| C5G C80A | ≤ 0.026 |
| C5G C34U A74U C77A | ≤ 0.026 |
| C5A U17G C68G | ≤ 0.026 |
| U4G C72G | 0.0909 |
| U4G U20A A33G G66C | ≤ 0.026 |
| U4G G7C A14G C34U C64G | ≤ 0.026 |
| C5A C77G | ≤ 0.026 |
| C5A C77A | ≤ 0.026 |
| C5G G28U A31G | ≤ 0.026 |
| C5A G59C | ≤ 0.026 |
| C5G A9C G85A | ≤ 0.026 |
| U4G C29U U71G | ≤ 0.026 |
| C5A A13U U55C G65A | ≤ 0.026 |
| C5G U35G U71C | ≤ 0.026 |
| C5U A31G G73A | ≤ 0.026 |
| C5A G7U A23U G25U U71A | ≤ 0.026 |
| C5A A33G C34U A60G | ≤ 0.026 |

| Variant | nonsense suppression |
| --- | --- |
| C5U A24C C27U C82A | ≤ 0.026 |
| C5A G66U G85A | ≤ 0.026 |
| C5G A54G | ≤ 0.026 |
| C5G A54U | ≤ 0.026 |
| C5U A13C | 0.0679 |
| C5A A60C C72G G85U | ≤ 0.026 |
| C5U A31C | ≤ 0.026 |
| U4G U22A G26A G66C C82G | ≤ 0.026 |
| C5A A14C A54C C72A A87C | ≤ 0.026 |
| C5G A30G G78C | ≤ 0.026 |
| C5A G10A C68U C72U | ≤ 0.026 |
| C5G U8C A60C G65C A87C | ≤ 0.026 |
| U4G U55G G73C A87U | ≤ 0.026 |
| U4G C27G C68G | ≤ 0.026 |
| C5U A33U | ≤ 0.026 |
| C5A C29A G65C U76A | ≤ 0.026 |
| C5A A14C U58G | ≤ 0.026 |
| C5G U16G A89G | ≤ 0.026 |
| U4G C27A C29G A74G | ≤ 0.026 |
| C5A U16A U21G | ≤ 0.026 |
| C5G U35A C64A | ≤ 0.026 |
| U4G U20C C75A | ≤ 0.026 |
| U4G U63A | 0.199 |
